Data from PubChem BioAssay AID588855 (National Center for Advancing Translational Sciences (NCATS), 2011).
Several values for one entry are separate records, joined by “and”; a condition that tells them apart may be missing. Equal entries are not always repeated. The campaign covered roughly 410,000 compounds. About 5,000 (1.2%) were called active. Inconclusive means that the source gave no clear call. Such entries were picked first, then a sample of the others. Calls follow the shape of the dose curve; as a rule, active = well fitted inhibition curve with a large enough effect; inconclusive = small, poorly fitted or top-dose-only effect; inactive = no such curve, though single readings can be large or run the other way. Potencies of inconclusive entries are doubtful fits and often do not repeat.

experiment: qHTS for Inhibitors of TGF-b; conditions: HepG2 CAGA-GFP TGF-b/SMAD3 reporter, GFP fluorescence, 18 h, TGF-beta stimulated, 500 pg/mL final; series mostly up to 46.1 µM; activity, negative = inhibition: at the top concentration; also: nearly all actives have a fitted effect of over 65% in size
Outline: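 Using HEPG2 CAGA-GFP reporter cells at 1000 cells/well, we pinned test compounds, stimulated with recombinant TGF-beta (500 pg/mL final) and measured total well GFP after 18 h.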
% is scaled to controls: 0 for no effect and ±100 for the full control effect; potency is read from the fitted curve at half-maximal effect; tags tell the direction and shape of the fitted curve.

Compound	Potency	activity, negative = inhibition
O=C(NC(Cc1ccccc1)C(=O)O)/C(=C\c1cccc([N+](=O)[O-])c1)NC(=O)c1ccco1 (stereo unspecified)	inconclusive: 35.5 µM [inhibitor, partial curve, poor fit]	
COc1cccc(NC(=O)c2nnn(Cc3ccc(OC)c(Br)c3)c2N)c1	inconclusive: 35.5 µM [inhibitor, single point]	
CN(Cc1ccccc1)C(=O)CC(c1ccccc1)c1cc(Cl)ccc1O (stereo unspecified)	active: 15.8 µM	
CCc1c(O)c(-c2ccccc2)c(=O)n(-c2ccccn2)c1-c1ccccc1		inactive: 6.22%
CN(C)CCN(C(=O)c1cc(Cl)sc1Cl)c1nc2ccc(F)cc2s1		inactive: -10.3%
Cc1ccc(NC(=S)N(C)C(c2ccccc2)c2ccccc2)cc1C	inconclusive: 31.6 µM [inhibitor, single point]	
COc1ccc(-c2nnc(SCC(=O)Nc3cccc(Cl)c3C)nc2-c2ccc(OC)cc2)cc1		inactive: -13.4%
CC(C)(C)C(=O)Nc1ccc(Sc2ccc([N+](=O)[O-])cc2)cc1	inconclusive: 31.6 µM [inhibitor, single point]	
NC(=O)c1cc2cc(Br)ccc2oc1=NCc1ccccc1		inactive: 6.04%
COc1ccc(O)c(/C=N/Nc2nc(Nc3ccccc3)nc(-n3nc(C)cc3C)n2)c1	inconclusive: 4.47 µM [inhibitor, full curve, poor fit]	
C[C@@]12CC(=O)NC1N(C(=O)c1ccccc1)C(c1ccccc1OC(=O)c1ccccc1)C2 (stereo partly specified)		inactive: -11.5%
O=C(CNC(=O)c1ccc(Cl)cc1Cl)NCc1ccccn1	inconclusive: 31.6 µM [inhibitor, single point]	
CCOC(=O)c1ccc(NS(=O)(=O)c2c(C)n[nH]c2C)cc1		inactive: 8.48%
COc1ccc(Cl)cc1N(C)C(=O)Cc1noc2ccc(C)cc12		inactive: -1.78%
O=C(NC(NC(=S)Nc1ccc(Cl)cc1)C(Cl)(Cl)Cl)c1ccco1 (stereo unspecified)	inconclusive: 35.5 µM [inhibitor, single point]	
CCOC(=O)N1CCN(c2cc(NCCO)c([N+](=O)[O-])c3nonc23)CC1	inconclusive: 35.5 µM [inhibitor, single point]	
CS(=O)(=O)c1ccccc1C(=O)Nc1ccc(-c2nc3ccccc3o2)cc1		inactive: -18.9%
CCOC(=O)/C(=C\c1ccc(Cl)cc1)c1nc2sc(C)c(C)c2c(=O)[nH]1	inconclusive: 2.82 µM [inhibitor, partial curve]	
N#Cc1ccccc1Sc1ccccc1C(=O)OCC(=O)NC1CCCCC1	inconclusive: 15.8 µM [inhibitor, single point]	
Cc1nc2c(-c3ccc(F)cc3)c(C)nn2c(C)c1CCC(=O)N1CCN(c2ccc(F)cc2)CC1	inconclusive: 35.5 µM [inhibitor, single point] and inconclusive: 11.2 µM [inhibitor, partial curve, poor fit]	
COC(=O)c1cc(=O)n(Cc2ccc(F)cc2)c(=Nc2ccccc2)s1	inconclusive: 35.5 µM [inhibitor, single point]	
CC(=O)NCc1nc2cccnc2n1Cc1ccccc1		inactive: -1.27%
CCOc1cc(CNCc2ccccc2)ccc1OCC(=O)NC1CCCCC1		inactive: 5.99%

Compound	Potency	activity, negative = inhibition
COc1ccc(S(=O)(=O)NCCCCOc2ccc(Cl)cc2)cc1	active: 12.6 µM	
NC1=NC[C@H](CC2CCCCC2)N1CCc1cc(C(F)(F)F)cc(C(F)(F)F)c1	inconclusive: 17.8 µM [inhibitor, single point]	
O=C(NC(=S)Nc1c(Cl)cc(Cl)cc1Cl)c1ccccc1		inactive: -26.6%
Cc1ccc(Cc2nc3ccccc3nc2SCC(=O)NCCc2ccccc2)cc1	inconclusive: 1.26 µM [inhibitor, full curve, poor fit]	
O=P(O)(COc1ccccc1)COc1ccccc1	inconclusive: 3.98 µM [inhibitor, full curve]	
CCCc1cc(=O)[nH]c(SCC(=O)Nc2sccc2C#N)n1		inactive: 0%
COC(=O)c1cc(S(=O)(=O)N2CCN(c3cccc(C)c3C)CC2)c[nH]1	inconclusive: 35.5 µM [inhibitor, single point]	
C/C(=N\NC(=O)c1c(Cl)c(C)nn1C)c1cccc(NC(=O)COc2ccc(Cl)cc2)c1		inactive: 3.1%
Cc1nn(-c2ccccc2)c2sc(C(=O)N3CCc4ccccc4C3)cc12	inconclusive: 11.2 µM [inhibitor, single point]	
CCN1C(=O)c2ccccc2Sc2ccc(NC(=O)Cc3ccc(OC)cc3)cc21	inconclusive: 0.562 µM [inhibitor, full curve, poor fit]	
CCCc1nc2sc3c(c2c(=O)n1NC(=O)CCCl)CCCC3	inconclusive: 11.2 µM [inhibitor, single point]	
CCCn1cc(S(=O)(=O)c2cc(C)ccc2C)c(=O)c2cc(F)c(N3CCCCCC3)cc21		inactive: -0.547%
C=CCNC(=S)N1CCN(c2ccccc2Cl)CC1	inconclusive: 35.5 µM [inhibitor, single point]	
Nc1c(N=Nc2ccc([N+](=O)[O-])cc2)c(S(=O)(=O)O)cc2cc(S(=O)(=O)O)c(/C=C/c3ccccc3)c(O)c12		inactive: -2.8%
Cc1nn(Cc2cccc(C(=O)Nc3ccn(Cc4ccccc4)n3)c2)c(C)c1[N+](=O)[O-]	inconclusive: 35.5 µM [inhibitor, single point]	
O=C(Cc1ccc(S(=O)(=O)N2CCOCC2)s1)Nc1cc(C(F)(F)F)cc(C(F)(F)F)c1	active: 17.8 µM	
CCC(C)NC(=O)c1ccc2c(c1)N=C(C)c1cc(C)ccc1S2 (stereo unspecified)	active: 7.08 µM	
CCCN(C(=O)C1CC(=O)N(c2ccccc2C(C)CC)C1)C1CCS(=O)(=O)C1 (stereo unspecified)		inactive: 0.845%
CN(Cc1ncc[nH]1)Cc1cn(-c2ccccc2)nc1-c1ccc2c(c1)OCO2		inactive: -0.314%
COc1cc(OC)c(/C=N/n2c(C3CCCCC3)n[nH]c2=S)c(OC)c1		inactive: -12.6%
FC(F)(F)c1ccccc1NC(=S)N1CCN(c2ncccn2)CC1	inconclusive: 3.16 µM [inhibitor, single point]	
Cc1ccc2c(c1)N(CC(=O)Nc1ccccc1F)C(=O)C(C)O2 (stereo unspecified)		inactive: 1.06%
C[C@@H]1COC(=O)[C@H](Cc2ccc(F)cc2)C/C=C\C[C@@H](CC(=O)N[C@H](CO)Cc2ccccc2)C(=O)N1	inconclusive: 10 µM [inhibitor, partial curve]	
